Reference: PubChem BioAssay AID2101 (National Center for Advancing Translational Sciences (NCATS), 2009)
About 300 (0.091%) of roughly 330,000 compounds were called active. The inconclusive results got no clear call from the source; some entries with a clear call stand among them for comparison. Calls come from the whole dose curve; as a rule, active = well fitted inhibition curve with a large enough effect; inconclusive = small, poorly fitted or top-dose-only effect, or effect the other way, or another doubt; inactive = no such curve, though single readings can be large or run the other way. No potency is given beside an inconclusive call; the fits are too rough.

Target: Lysosomal acid glucosylceramidase (Homo sapiens) (UniProt P04062)
Assay: qHTS Assay for Inhibitors and Activators of N370S glucocerebrosidase as a Potential Chaperone Treatment of Gaucher Disease;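 for activity change, negative = inhibition: 0% = full enzyme activity and -100% = no enzyme basal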
Settings: N370S GC spleen homogenate, 4MU-glucoside fluorescence; activity change, negative = inhibition: at 59.4 µM (top of the series) unless noted
Potency is the fitted concentration of half-maximal effect.

Structure (SMILES)	Potency	activity change, negative = inhibition
COCCNC(=O)c1cc2cc3ccc(OC)cc3nc2o1	inconclusive [activator, partial curve]	
O=c1nc2cccc3c2=c(/c1=C(\O)c1ccccc1)c1ccccc1c3=O	inconclusive [activator, full curve, poor fit]	
C/C(=N/NC(=O)c1sc(NS(=O)(=O)c2ccc(C)cc2)nc1C)c1sc(N)nc1C	inconclusive [activator, single point]	
Cc1ccc(NC(=O)c2nc(S(=O)(=O)Cc3ccccc3)ncc2Cl)cc1		inactive: -2.08%
O=c1c2ccccc2nc(SCc2nnc(-c3ccccc3Br)o2)n1Cc1ccco1	inconclusive [activator, partial curve]	
CC(C)Cc1nc(NCCN2CCOCC2)c(C#N)c2c1COC(C)(C)C2	inconclusive [inhibitor, partial curve, poor fit]	
c1ccc(CO/N=C(\c2ccc(C3CC3)nc2)C2CC2)cc1	inconclusive [activator, partial curve]	
C/C(=N\NC(=O)c1c(Cl)cnn1C)c1cccc(NC(=O)C(C)C)c1	inconclusive [inhibitor, full curve, poor fit]	
CCCOc1ccc(NC(=O)CC2C(=O)N(CC)C(=S)N2CCNC(C)=O)cc1 (stereo unspecified)	inconclusive [inhibitor, full curve, poor fit]	
CC(=O)c1ccc(NC(=O)N2CCc3ccccc3C2)cc1		inactive: -3.03%
Clc1cccc(CSc2ncn(-c3ccccc3)n2)c1	inconclusive [activator, partial curve]	
Cc1ccc(C)c(C(C)NC(=S)NCc2ccc(F)cc2)c1 (stereo unspecified)	inconclusive [activator, partial curve, poor fit]	
CN(C)c1nc(NC(C)(C)C)nc(SCC(=O)Nc2ccccc2)n1	inconclusive [activator, partial curve]	
CCc1c(C)sc(NC(=S)N2CC(C)OC(C)C2)c1C(=O)OC (stereo unspecified)	inconclusive [activator, partial curve]	
CCNc1ncc2nc(-c3cc(F)cc(F)c3)c(=O)n(C3CC3)c2n1	inconclusive [activator, full curve, poor fit]	
Cc1ccc(NC(=O)CSCC(=O)N2CCCc3ccccc32)cc1	inconclusive [activator, partial curve]	
COCC(=O)N1CCc2nc(-c3ccccc3)c3c(c2C1)CO[C@@H](C)C3		inactive: 7.26% [at 12.8 µM]
O=S(=O)(c1cccc(NC(=S)Nc2ccc(Br)cc2Cl)c1)N1CCOCC1		inactive: -7.02%
COc1ccc(/C=N/Nc2ccccn2)cc1OC		inactive: 18.2%
Cc1cccc(NC(=O)CSc2nc3ccccc3c(=O)n2C)c1	inconclusive [activator, single point]	
CCN(C(=O)COC(=O)CSc1ccc(C(N)=O)cc1[N+](=O)[O-])C1CCCCC1	inconclusive [inhibitor, single point]	
Cc1cc(=O)oc2cc3c(cc12)OCO3	inconclusive [activator, partial curve]	

Structure (SMILES)	Potency	activity change, negative = inhibition
CCN(CC(=O)Nc1ccc(NC(C)=O)cc1)CC(=O)Nc1ccccc1C(=O)c1ccccc1		inconclusive: 40.8% [activator]
CN1CCN(c2ccccc2NC(=O)c2cc3c(s2)-c2ccccc2OC3)CC1	inconclusive [inhibitor, single point]	
CCOc1ccc(C2C(C(=O)OC)=CN(C(C)c3ccccc3)C=C2C(=O)OC)cc1 (stereo unspecified)	inconclusive [activator, single point]	
COc1ccc(-c2ccc(/C=C3/C(=N)N4C(C)=CSC4=NC3=O)o2)c([N+](=O)[O-])c1	inconclusive [inhibitor, single point]	
Cc1ccccc1CN1C(=O)C(C)S/C1=N/N=C/c1ccco1 (stereo unspecified)	inconclusive [activator, partial curve]	
COc1ccc(S(=O)(=O)N(CCO)c2ccccc2CN(C)C/C=C/c2ccc(Cl)cc2)cc1	inconclusive [inhibitor, single point]	
COc1ccc(C(=O)NCC(=O)N/N=C/c2c(C)[nH]c3ccccc23)cc1	inconclusive [activator, single point]	
COc1ccc(-c2nnc(SCC(=O)N3c4ccccc4Sc4ccccc43)o2)cc1	inconclusive [activator, partial curve]	
Cc1ccc(NC(=O)C2CC(c3ccc(F)cc3)=NO2)cc1 (stereo unspecified)		inconclusive: 27.6% [activator]
O=C(NC1C=CS(=O)(=O)C1)c1sc2ccccc2c1Cl (stereo unspecified)	inconclusive [inhibitor, single point]	
Cc1cc(C)c2cc(CN(Cc3ccco3)C(=S)NCC3CCCO3)c(=O)[nH]c2c1 (stereo unspecified)	inconclusive [activator, full curve]	
CC(NC(=O)Nc1nnc(C(F)(F)F)s1)(C(F)(F)F)C(F)(F)F		inactive: 27.2%
CCN(CC)CCOc1ccc(/C(=C(/Cl)c2ccccc2)c2ccccc2)cc1	inconclusive [inhibitor, single point]	
O=C(Nc1cccc(-c2cccc(F)c2)c1)C1CCN(Cc2ccc(CO)o2)CC1	inconclusive [inhibitor, single point]	
CC(C)(C)[C@H]1C=C(C(=O)N2CCN(Cc3ccc4c(c3)OCO4)CC2)O[C@@H](OCc2ccc(CO)cc2)C1	inconclusive [activator, full curve, poor fit]	
CCc1c(C)c(C#N)c2nc3ccccc3n2c1Nc1c(C)n(C)n(-c2ccccc2)c1=O		inactive: 9.72%
Cc1ccc(NC(=S)N(CCCN2CCOCC2)Cc2ccco2)cc1	inconclusive [inhibitor, partial curve]	
CC(=O)C1=C(C)OC(N)=C(C#N)C1c1cccc([N+](=O)[O-])c1 (stereo unspecified)		inactive: -6.28%
Cc1cccc(CN2C(=O)NC(c3ccccc3)(c3ccccc3)C2=O)c1	inconclusive [activator, single point]	
Brc1ccccc1-c1nnc(-c2cccnc2)o1		inactive: 8.19%
Cc1cccc(-n2ncc3c(NCc4cccnc4)ncnc32)c1		inactive: 2.57%
CC(NC(=O)/C=C/c1ccco1)c1nc2ccccc2n1Cc1cccc(Cl)c1 (stereo unspecified)		inactive: -16.8%

Structure (SMILES)	Potency	activity change, negative = inhibition
CC1CN(Cc2cc(=O)oc3cc(O)ccc23)CC(C)O1 (stereo unspecified)	inconclusive [activator, partial curve]	
COc1ccc2c(c1)c(=O)oc1cc(OC(C(=O)O)c3ccccc3)ccc12 (stereo unspecified)	inconclusive [activator, partial curve]	
CCC(=O)Nc1c(C#N)c2nc3ccccc3nc2n1-c1ccccc1C		inactive: 6.85%
O=C(CSc1nccn1Cc1ccc(F)cc1)Nc1ccc(F)cc1F	inconclusive [activator, single point]	
O=C1c2cccc3cccc(c23)C(=O)N1CCN1CCN(CC(O)COc2ccc3ccccc3c2)CC1 (stereo unspecified)	inconclusive [inhibitor, partial curve]	
c1csc(C2Nc3ccccc3-c3nc4ccccc4n32)c1 (stereo unspecified)	inconclusive [activator, partial curve]	
Cc1ccc2cc(C(c3nnnn3C3CCCC3)N(Cc3ccccc3)Cc3ccco3)c(=O)[nH]c2c1 (stereo unspecified)	inconclusive [activator, full curve]	
CCOc1ccccc1NC(=O)CSc1nc2c(c(=O)n1C)SC(C)C2 (stereo unspecified)	inconclusive [activator, partial curve]	
CC(C)(C)OC(=O)NCCCCC1=CC2=CC(=O)C(C)(OC(=O)C3CCCC3)C(=O)C2=CO1 (stereo unspecified)		inactive: -1.53%
Cc1ccc(-n2nnnc2-c2cnc(N3CCCC3)nc2C(F)(F)F)cc1	inconclusive [activator, partial curve]	
O=C(Nc1ccc2c(c1)OCCO2)c1ccc(Br)o1		inactive: 1.95%
Cc1ccc(S(=O)(=O)n2nc(C)c(Br)c2C)c(C)c1C	inconclusive [activator, partial curve]	
O=C(CON=C1c2ccccc2-c2ccccc21)NC12CC3CC(CC(C3)C1)C2	inconclusive [activator, partial curve]	
CCC(C)(C)C1CCc2[nH]nc(C(=O)NCCN3CCOCC3)c2C1 (stereo unspecified)	inconclusive [inhibitor, partial curve]	
OC[C@@H]1[C@@H](c2ccccc2)C(c2ccccc2)=NN1c1ccccc1	inconclusive [activator, partial curve]	
Cc1cc(C)c(NS(=O)(=O)c2c(C(=O)N3CCOCC3)c(C)n(C)c2C)c(C)c1	inconclusive [inhibitor, single point]	
O=c1[nH]c(C2CCCN(S(=O)(=O)c3ccccc3)C2)nc2c1nnn2Cc1cccc(Cl)c1 (stereo unspecified)		inactive: -4.55%
CCOc1ccc(S(=O)(=O)N2CCCCC2)cc1NC(=O)C1=COCCO1	inconclusive [activator, partial curve]	
NCc1cccc(CNc2ccc([N+](=O)[O-])cc2C(N)=O)c1	inconclusive [inhibitor, partial curve]	
COC(=O)c1ccc(C(/C=C/[C@@H](C)C(=O)N[C@H](C)CO)NC(=O)OCc2ccccc2)cc1 (stereo partly specified)		inactive: 14.2%
CCn1c(C)c(C(=O)O)c2cc(OC)c3ccccc3c21		inactive: -7.79%
Cc1cccc(-c2ccc(NC(=O)C3CCN(CC4CC4)CC3)cc2)c1	inconclusive [inhibitor, partial curve]	
